Out of some 48,000 compounds screened, about 450 (0.94%) were called active. Roughly 19% stayed inconclusive and do not appear here. The call rests on the fitted dose curve; in most records, active means well fitted inhibition curve with a large enough effect; inconclusive means small, poorly fitted or top-dose-only effect; inactive means no such curve, though single readings can be large or run the other way. Some of the results follow.
Experiment: Primary qHTS for Identification of Small Molecule Inhibitors of Huntingtin Promoter Activity; further: nearly all actives have a fitted effect of over 50% in size
Details: HEK293 HTT promoter firefly luciferase reporter (activity 0% = vehicle and -100% = no light), 24 h; series mostly up to 57.5 µM; activity change, negative = inhibition: at the top concentration
How it was run: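 Firefly luciferase readout (Dual-Glo, 10 min RT) after 24 h, 37 °C compound exposure (final up to 57.5 uM) of HEK293 reporter cells cultured 24 h beforehand; PTC124 at 50 uM final as control inhibitor; activity scaled vehicle 0%, zero RLU -100%.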

Activity change, negative = inhibition, inactive:
Cc1ccc2c(c1)N(CC(=O)NCc1cccc(Cl)c1)C(=O)c1cccnc1O2 -15.7%, COc1ccccc1Cn1c(CNS(=O)(=O)c2c(C)cc(C)cc2C)nc2cccnc21 -10.9%, Cc1ccc(-n2nc(C)c3c(C)c(CCC(=O)NCc4cccc(Cl)c4)c(C)nc32)cc1C -22.4%, CCOCCCn1c(=N)c(S(=O)(=O)c2ccccc2)cc2c(=O)n3cc(C)ccc3nc21 4.08%, CCn1cc(S(=O)(=O)c2ccccc2)c(=O)c2cc(F)c(N3CCCCCC3)cc21 -15.8%, O=C(CSc1c2c(nc3ccc(Cl)cc13)CCCC2)N1CCCCC1 -14%, CCOc1ccc(CCNC(=O)c2cc3cc4ccc(OC)cc4nc3s2)cc1OCC -2.69%, Cc1ccccc1OCC(=O)Nc1ccc(S(=O)(=O)Nc2ncccn2)cc1 -7.59%, Nc1c2c(nc3c1CCC3)CCCC2 -3.87%, COCCNC(=O)C(=O)Nc1ccc2nc3n(c(=O)c2c1)CCCCC3 2.84%, C=Cc1ccc(Cn2c(C(=O)O)c(CNCc3cc(OC)ccc3OC)c3ccc(C)cc32)cc1 -5.19%, COc1ccc(CCNC(=O)C(C)n2nc(C)c3sc4ccccc4c3c2=O)cc1OC (stereo not drawn) -14.1%, CCOc1ccc(C2C(C(=O)Nc3ccc(C)cc3C)=C(C)Nc3c(C(=O)Nc4ccc(C)cc4)cnn32)cc1OC (stereo not drawn) 2.63%, COc1ccc(-c2nc(C)c(CCNC(=O)c3cccc(C)c3)s2)cc1OC 22%, COc1ccc(C2NC(=O)N(C)C3=C2C(=O)N(c2ccccc2)C3)cc1 (stereo not drawn) -18%, COc1ccc(-c2nc3c(C#N)c[nH]n3c2NC2CCCCC2)cc1 18.8%, COC(=O)c1cc2sccc2n1Cc1ccc(F)cc1 -25.8%, CCCCC(=O)Nc1nnc(S(=O)(=O)N2CCCCCC2)s1 3.76%, Cc1ccc(C)c(N2CCN(C(=O)CN3C(=O)COc4ccc(S(=O)(=O)N5CCOCC5)cc43)CC2)c1 -12.2%, CCOc1ccc(NC(=O)c2cccc(N3CCCS3(=O)=O)c2)cc1 7.26%, Cc1cccc(-c2cc(NC(=O)c3ccccc3C)n(-c3ccccc3)n2)c1 10.1%, CCC(=O)N1c2ccccc2CC1C(=O)NCCCN1CCN(c2ccccc2)CC1 (stereo not drawn) -10.4%, Cc1ccc(C)c(NC(=O)c2cc(S(=O)(=O)N3CCc4ccccc4C3)ccc2F)c1 -4.17%, COc1ccccc1CNC(=O)c1cc2sccc2n1Cc1ccc(F)cc1 -23.5%, COc1ccc(Br)cc1CNC(=O)CCCn1c(=O)c2cccn2c2cccnc21 -9.01%, CCCS(=O)(=O)c1c(S(=O)(=O)CCC)c2cc(C(C)(C)C)ccn2c1C(=O)c1ccc(OC)c(OC)c1 -22.4%, COc1ccc(-c2noc(-c3ccccc3OCC(=O)Nc3ccc(C(C)=O)cc3)n2)cc1 10%, O=C(Cn1ncc2c3ccccc3n(Cc3ccccc3)c2c1=O)N1CCCCCC1 4.87%, CN=C(NC#N)NCCSCc1nc[nH]c1C 5.13%, CCc1cccc(NC(=O)Cn2c(C(=O)OC)cc3occc32)c1 -17.8%, COc1ccccc1NC(=O)Cn1c(=O)n(-c2ccccc2Cl)c(=O)c2sc3ccccc3c21 -16.4%, CSc1cccc(Nc2ncc3cc(-c4c(Cl)cccc4Cl)c(=O)n(C)c3n2)c1 -0.113%, Cc1ccc(CNc2ccc(-c3nc(-c4cccnc4)no3)cc2[N+](=O)[O-])cc1 -3.32%, CCN(CC)S(=O)(=O)c1ccc2c(c1)N(CC(=O)Nc1ccc(F)cc1F)C(=O)C1CCCN21 (stereo not drawn) -17.2%, CCOC(=O)c1[nH]c2ccccc2c1NC(=O)c1cc(Cl)ccc1Cl -23.5%, COc1ccc(CNC(=O)CCCCCn2c(=O)[nH]c3ccccc3c2=O)cc1 -11.3%, CCOC(=O)c1[nH]c2ccccc2c1NC(=O)c1ccc(OC)c(OC)c1 -13.7%, COc1cc(NC(=O)Cn2c(C)cc(C)c(C#N)c2=O)cc(OC)c1 -5.25%, CCn1cc(C(=O)NCCc2ccc(Cl)cc2)c(=O)c2cc(S(=O)(=O)N3CCOCC3)ccc21 -13.2%, Oc1cccc(-c2nc3ncccn3c2Nc2cccc(C(F)(F)F)c2)c1 -26.4%, NCCO 7.87% [at 116 µM], COc1ccccc1Cc1nc2ccccc2nc1SCC(=O)NCc1ccc(F)cc1 3.9%, COc1ccccc1Nc1nc2c(S(=O)(=O)c3ccc(C(C)C)cc3)nnn2c2ccsc12 -3.11%, Cc1ccc2c(=O)cc(C(=O)Nc3ccc(S(=O)(=O)N4CCCCC4)cc3)oc2c1C -22.6%, Cc1ccc(NC(=O)CCc2nc3cccnc3n2-c2ccccc2)cc1 -31.4%, Cc1coc2cc3oc(=O)c(CC(=O)NCCc4ccccc4F)c(C)c3cc12 2.28%, O=C(Cn1c(=O)n(Cc2ccc(C(=O)NCc3ccccc3Cl)cc2)c(=O)c2ccccc21)Nc1ccc(F)cc1 -7.55%, CC(C)(C)C(=O)Nc1ccc(Cl)c(-c2nc3ccccc3[nH]2)c1 -9.85%

Reference: PubChem BioAssay AID1508623 (National Center for Advancing Translational Sciences (NCATS), 2021)
